Some of the results follow. Further columns of the screen follow, without active or inactive calls.

Common to all, as to test: Primary Screen for Target Class Profiling of Small Molecule Inhibitors of Methyltransferases
For assay [1], the target named is Glycine N-methyltransferase (Homo sapiens) (UniProt Q14749). The conditions noted are these: purified enzyme, MTase-Glo SAH luminescence; measured here: GNMT inhibition; at 40 µM; stronger effect = lower value. From the text: (§1) PI: Matthew D. Hall Ph.D. and Quinlin M. Hanson Ph.D.
(§2) National Center for Advancing Translational Sciences (NCATS)
(§3) National Institute of Health (NIH), Rockville, MD
(§4) Target class profiling (TCP) is a chemical biology approach amenable to investigating understudied biological targets. TCP is achieved by developing a generalizable assay platform and applying it to screen a curated set of compound libraries against representative members of a target class. Small molecule methyltransferases (SMMTase) are a subclass of methyltransferase that act on metabolites to modulate signaling pathways, metabolize xenobiotics, or balance the available methyl pool. We screened four curated libraries totaling 27,574 unique compounds against the SMMTases nicotinamide N-methyltransferase (NNMT), phenylethanolamine N-methyltransferase (PNMT), histamine N-methyltransferase (HNMT), glycine N-methyltransferase (GNMT), catechol O-methyltransferase (COMT), and guanidinoacetate N-methyltransferase (GAMT). The data generated by this TCP can be leveraged for informed tool molecule development. For example, in the associated publication we identified a chemotype of HNMT-selective inhibitors. Additionally, we identified a putative SMMTase-selective inhibitor with potential as a tool molecule for studying broader methyltransferase biology.
(§5) High-through put screening assays were developed at the National Center for Advancing Translational Science (NCATS) for the enzymes NNMT, PNMT, HNMT, GNMT, COMT, and GAMT. Enzymatic activity was measured as a function of SAM cofactor conversion using the MTase Glo kit (Promega) for all enzymes. All assays were performed in 1536-well format with substrates and SAM concentrations at KM values. Enzyme concentration and assay timing were optimized for 10-20% SAM conversion. Initial screening of 27,574 compounds was done as single-point assays using the highest compound concentration (40 uM). […] These compounds were replated in 11-point dose response and assayed against NNMT, PNMT, HNMT, GNMT, COMT, GAMT, and a counter-assay. The IC50 and efficacy (maximal response) values were determined for each dose-response curve. These values are also accounted for in the area under the curve (AUC) values.
(§6) PROTOCOL TABLE (as described by Inglese J, Shamu CE and Guy RK. 2007)
(§7) SEQUENCE No. (e.g., 1, 2, 3, etc.); […] (e.g., Cells, Incubation, Reagent, etc.); VALUE; DESCRIPTION.
(§8) 1; Reagent; 2 uL; SMMTase Enzyme (2x) in reaction buffer, columns 1- 48.
(§9) 2; Reagent; 1 uL; SAM (4x) in reaction buffer, columns 1-48.
(§10) 3; Controls; 23 nL; DMSO in column 4; sinefungin in DMSO (0 uM - 40 uM) in 7-point 1:2 dilution series (n = 2) in column 2.
(§11) 4; Compounds; 23 nL; Columns 5-48.
(§12) 5; Reagent; 1 uL; Substrate (4x) in reaction buffer, columns 2-48.
(§13) 6; Time; 20-30 min; Incubation.
(§14) 7; Reagent; 1 uL; MTase-Glo reagent (5X), columns 1-48.
(§15) 8; Time; 30 min; Incubation.
(§16) 9; Reagent; 5 uL; MTase-Glo Detection reagent, columns 1-48.
(§17) 10; Time; 30 min; Incubation, luminescence evolution.
(§18) 11; Detection; Luminescence; ViewLux uHTS Microplate Imager (PerkinElmer).
(§19) NOTES (numbers refer to Sequence numbers above)
(§20) 1, 2, 5. White Medium Binding Greiner 1536-well plates (Cat #789175-F, Greiner Bio-One, Monroe, NC); Reaction buffer: 50 mM Tris, pH 8.0, 3 mM MgCl2, 1 mM EDTA, 50 mM NaCl, 1 mM DTT, and 0.1 mg/mL BSA. Evaporation was prevented by covering assay plates with metal lids containing holes to allow gas diffusion.
(§21) 1. Six SMMTase were profiled: HNMT, GNMT, PNMT, COMT, NNMT, GAMT
(§22) 5. The corresponding substrate was used for each enzyme: HNMT - 5.3 uM Histamine; GNMT - >500 uM Glycine; PNMT - 16.2 uM Norephinephrine; COMT - 13.7 uM Norephinephrine; NNMT - 3.8 uM Nicotinamide; GAMT - 2.5 uM Guanidinoacetate.6, 8, 10. Room temperature
(§23) 6. Final reaction conditions: 10 nM COMT, 5 uM SAM, 15 uM norepinephrine, 50 mM Tris, pH 8.0, 3 mM MgCl2, 1 mM EDTA, 50 mM NaCl, 1 mM DTT, and 0.1 mg/mL BSA; refer to tables 2 and S1 for specific timing.
8. […]

Assay [2] deals with Guanidinoacetate N-methyltransferase (Homo sapiens) (UniProt Q14353). The conditions noted are these: purified enzyme, MTase-Glo SAH luminescence; measured here: GAMT inhibition; at 40 µM; stronger effect = lower value.
Text: as §1, §2, §3, §4, §5, §6, §7, §8, §9, §10, §11, §12, §13, §14, §15, §16, §17, §18, §19, §20, §21, §22, §23
8. […]

In assay [3] the target is Histamine N-methyltransferase (Homo sapiens) (UniProt P50135). To be noted: purified enzyme, MTase-Glo SAH luminescence; measured here: HNMT inhibition; at 40 µM; stronger effect = lower value.
Text: as §1, §2, §3, §4, §5, §6, §7, §8, §9, §10, §11, §12, §13, §14, §15, §16, §17, §18, §19, §20, §21, §22, §23
8. […]

Assay [4] deals with Nicotinamide N-methyltransferase (Homo sapiens) (UniProt P40261). The conditions noted are these: purified enzyme, MTase-Glo SAH luminescence; measured here: NNMT inhibition; at 40 µM; stronger effect = lower value.
Text: as §1, §2, §3, §4, §5, §6, §7, §8, §9, §10, §11, §12, §13, §14, §15, §16, §17, §18, §19, §20, §21, §22, §23
8. […]

Assay [5] concerns the target Phenylethanolamine N-methyltransferase (Homo sapiens) (UniProt P11086). To be noted: purified enzyme, MTase-Glo SAH luminescence; measured here: PNMT inhibition; at 40 µM; stronger effect = lower value.
Text: as §1, §2, §3, §4, §5, §6, §7, §8, §9, §10, §11, §12, §13, §14, §15, §16, §17, §18, §19, §20, §21, §22, §23
8. […]
% is set by controls: 0 for no effect and ±100 for the full control effect.

Turning to `CCCCCC(=O)N1C[C@H](C(=O)NC)[C@H]2c3ccccc3N(CC3CC3)C(=O)[C@]21C`, the activity change, negative = inhibition in assay [1] is -0.557%; in assay [2], -0.025%; in assay [3], -0.207%; in assay [4], -9.13%; in assay [5], 10.3%.
Taken in the same sequence, the figures for `COCCNC(=O)C(NC(=O)c1cccc(OC)c1)C1CCN(C(=O)COC)CC1` (stereo not given) were -3.89%, -5.07%, -1.52%, -5.7% and 0.637%.
For `O=[S+]([O-])(c1cccs1)N1CCCN(c2nc3ncccc3o2)CC1` the same measures were -10.7%, -4.69%, -5.34%, -18.5% and -3.74%.
For `Cc1ccc(NC(=O)CSc2nnc3n(Cc4ccccc4)c(=O)c4ccccc4n23)cc1C` the same measures were -5.66%, -2%, -1.77%, -9.41% and -4.85%.
For the molecule `Cc1cc(CN2CCc3nc(C(C)C)nc(-c4ccc(Cl)cc4)c3CC2)no1`, the activity change, negative = inhibition in assay [1] was -8.59%; in assay [2] it was -8.28%; in assay [3] it was -5.86%; in assay [4] it was -15.1%; in assay [5], -7.63%.
For `COc1ccc2[nH]c(=O)c(CCC(=O)NC(C)c3cn(C)nc3C)cc2c1` (stereo not given) the same measures were -10.7%, -9.02%, -3.26%, -12.6% and -10.7%.
For `Cn1cnc(S(=O)(=O)N[C@H]2CCN(C(=O)c3ccco3)[C@H](C(=O)N[C@@H](Cc3cccs3)C(N)=O)C2)c1` the same measures were 1.38%, -0.58%, 0.967%, 0.894% and -2.44%.
For `COc1cccc(Nc2ccnc(-c3nnc(C)n3C3CCCCC3)c2)c1` the same measures were -7.63%, -7.34%, -9.23%, -59.5% and -10.1%.
As for `C=C(C(=O)O)C1CC(OC(=O)CC(C)CC)C2(C)CCCC(=C)C2C1` (stereo not given), the activity change, negative = inhibition is -2.95% in assay [1]; -1.02% in assay [2]; 9.32% in assay [3]; -22% in assay [4]; -10.2% in assay [5].
Taken in the same sequence, the figures for `CCCn1c(=O)c2ccc(C(=O)NC3CCCCC3)cc2n2c(=O)n(Cc3cccc(C)c3)nc12` were 2%, 1.56%, 3.52%, -1.06% and -1.58%.
On to `O=C(CCc1nnn2c1CN(S(=O)(=O)c1ccccc1)CC2)NCc1ccccc1`, for which the activity change, negative = inhibition in assay [1] is -1.46%; in assay [2], -2.16%; in assay [3], -0.044%; in assay [4] it was 2.87%; in assay [5], 3.43%.
For `Cc1ocnc1C(=O)N1CCC2(CC1)CN(CC(C)c1ccccc1)C(=O)O2` (stereo not given) the same measures were -3.28%, -8.18%, -2.77%, -14.7% and 10.5%.
For the molecule `CCc1ccc(CNC(=O)c2cc3n(n2)CC(C)(C(=O)NCCC(C)C)N(C)C3=O)cc1` (stereo not given), the activity change, negative = inhibition in assay [1] is 2.48%; in assay [2], 4.6%; in assay [3] it was 3.13%; in assay [4], 3.83%; in assay [5] it was 1.14%.
For `C=C1C2(CCC(=O)OC2(C)C)CC(OC(=O)/C(C)=C/C)C2(C)C13OC14C(=O)OC(C)(C(=O)C12C(=O)OC4C)C3OC(C)=O` (stereo not given) the same measures were 1.58%, 5.55%, 4.89%, -10.3% and 3.65%.
Taken in the same sequence, the figures for `COc1ccc(OC)c2c1cc1n2CC(C)(C(=O)NC2CCCCC2)N(Cc2ccccc2C)C1=O` (stereo not given) were -4.18%, 0.583%, 1.27%, -0.772% and -5.02%.
